Experimental data: article PMC6451091
This is one part of the list. For part of these data: At the low end of the ranking the order means little. For part of these data: Measured with an extract: partners may take part in the binding.

How the values were obtained:
Conditions in all cases: 20 mM HEPES pH 7.9, 100 mM NaCl, 1 mM DTT, 0.2 mg/mL BSA, 0.02% Triton X-100, 2% milk, 0.4 mg/mL salmon testes DNA; 1 h; temperature not stated; high values mean tight binding; double strand, one strand shown; sequences stand for … in GCCTAGCAC…GTGCTAGGTCTTGATTCGCTTGACGCTGCTG
PU.1 (IVT) = PU.1 (IVT) (UniProt P17947); test: protein-binding microarray (PBM)
[1] = biological target: PU.1 (endogenous, THP-1 nuclear extract) (UniProt P17947); test: nuclear extract protein-binding microarray (nextPBM)
[2] = biological target: T1, FLI1 (endogenous, THP-1 nuclear extract) (UniProt Q01543); test: as above
T1 sequence: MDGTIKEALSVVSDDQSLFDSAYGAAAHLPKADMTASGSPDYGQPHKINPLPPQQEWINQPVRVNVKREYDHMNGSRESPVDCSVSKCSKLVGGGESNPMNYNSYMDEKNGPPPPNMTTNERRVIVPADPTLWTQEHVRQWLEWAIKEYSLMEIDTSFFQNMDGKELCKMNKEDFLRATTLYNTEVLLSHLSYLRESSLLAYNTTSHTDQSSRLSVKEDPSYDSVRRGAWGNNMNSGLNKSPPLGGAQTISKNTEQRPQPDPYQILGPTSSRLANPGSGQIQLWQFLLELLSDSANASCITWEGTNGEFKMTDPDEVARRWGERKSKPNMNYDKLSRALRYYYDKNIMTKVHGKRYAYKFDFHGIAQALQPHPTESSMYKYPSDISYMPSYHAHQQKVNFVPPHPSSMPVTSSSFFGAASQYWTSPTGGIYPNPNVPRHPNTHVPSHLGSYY

## TTATAGAGGAAGTGTGAAAT
PU.1 (IVT)
  binding signal: 4.15 z-score
[1]
  binding signal: 4.5 z-score
[2]
  binding signal: 2.49 z-score

## TAAGTGGGGAAGTGAGACAA
PU.1 (IVT)
  binding signal: 2.84 z-score
[1]
  binding signal: 2.73 z-score
[2]
  binding signal: 1.1 z-score

## AAGAAGAGGAAGTGGCTTCC
PU.1 (IVT)
  binding signal: 6.81 z-score
[1]
  binding signal: 6.99 z-score
[2]
  binding signal: 3.93 z-score

## GTGAGAAGGAAGTGAATGCA
PU.1 (IVT)
  binding signal: 2.84 z-score
[1]
  binding signal: 2.95 z-score
[2]
  binding signal: 2.26 z-score

## TGGAAGAGGAAATGTTTCTG
PU.1 (IVT)
  binding signal: 2.62 z-score
[1]
  binding signal: 2.06 z-score
[2]
  binding signal: 2.26 z-score

## GGAATGGGGAAGTGGAGAGG
PU.1 (IVT)
  binding signal: 6.1 z-score
[1]
  binding signal: 6.59 z-score
[2]
  binding signal: 2.4 z-score

## GAAAAGAGGATGTGAACTTT
PU.1 (IVT)
  binding signal: 3.86 z-score
[1]
  binding signal: 4.14 z-score
[2]
  binding signal: 2.07 z-score

## TTGGTCAGGAAGTGTCAGAG
PU.1 (IVT)
  binding signal: 0.801 z-score
[1]
  binding signal: 1.06 z-score
[2]
  binding signal: 2.89 z-score

## CTGGAGAGGAAATGTTTAAA
PU.1 (IVT)
  binding signal: 1.49 z-score
[1]
  binding signal: 0.685 z-score
[2]
  binding signal: 2.45 z-score

## AAAAAGAGGAAGAGGCGCTT
PU.1 (IVT)
  binding signal: 5.63 z-score
[1]
  binding signal: 6.28 z-score
[2]
  binding signal: 2.24 z-score

## GAAAAGGGGAACTAGAATGA
PU.1 (IVT)
  binding signal: 7.02 z-score
[1]
  binding signal: 6.88 z-score
[2]
  binding signal: 2.5 z-score

## GTCAAGAGGAACTACTGTGG
PU.1 (IVT)
  binding signal: 3.7 z-score
[1]
  binding signal: 3.22 z-score
[2]
  binding signal: 1.23 z-score

## CAAATGATGAACTGATGCGG
PU.1 (IVT)
  binding signal: -0.173 z-score
[1]
  binding signal: -0.308 z-score
[2]
  binding signal: 0.282 z-score

## CAGAGGAGGAAGTGGATTGA
PU.1 (IVT)
  binding signal: 4.61 z-score
[1]
  binding signal: 4.95 z-score
[2]
  binding signal: 3.01 z-score

## AAAAAAATGAACTGGCTAGA
PU.1 (IVT)
  binding signal: 0.479 z-score
[1]
  binding signal: 0.478 z-score
[2]
  binding signal: -0.386 z-score

## AAAAAAAGGAAATACTGTGA
PU.1 (IVT)
  binding signal: 3.25 z-score
[1]
  binding signal: 2.13 z-score
[2]
  binding signal: 1.63 z-score

## CATAAGAGGAAGTCCTCTGT
PU.1 (IVT)
  binding signal: 5.75 z-score
[1]
  binding signal: 6.51 z-score
[2]
  binding signal: 3.15 z-score

## AAGAAGGGGAAGTGCCCTCA
PU.1 (IVT)
  binding signal: 5.91 z-score
[1]
  binding signal: 6.53 z-score
[2]
  binding signal: 2.61 z-score

## ACAAAAAGGAACTGTGCGCC
PU.1 (IVT)
  binding signal: 1.88 z-score
[1]
  binding signal: 1.62 z-score
[2]
  binding signal: 0.725 z-score

## TCAAAGAGGAAGTGCAACCA
PU.1 (IVT)
  binding signal: 6.02 z-score
[1]
  binding signal: 6.6 z-score
[2]
  binding signal: 3.36 z-score

## GAAAACAGGAAGTACCATAG
PU.1 (IVT)
  binding signal: 7.62 z-score
[1]
  binding signal: 7.18 z-score
[2]
  binding signal: 4.77 z-score

## TTAAAGAGGAAGTGGAGAGA
PU.1 (IVT)
  binding signal: 6.29 z-score
[1]
  binding signal: 6.7 z-score
[2]
  binding signal: 3.32 z-score

## CCAGAGAGGAACTGGAGGAG
PU.1 (IVT)
  binding signal: 1.65 z-score
[1]
  binding signal: 2.32 z-score
[2]
  binding signal: 0.963 z-score

## AGGGAGGGGAAGTGAGGCCG
PU.1 (IVT)
  binding signal: 3.08 z-score
[1]
  binding signal: 3.22 z-score
[2]
  binding signal: 1.9 z-score

## GAGGAGAGGAAGTGGTTGTT
PU.1 (IVT)
  binding signal: 4.18 z-score
[1]
  binding signal: 4.08 z-score
[2]
  binding signal: 3.16 z-score

## GCAGTGGGGAAGTGCCTAAA
PU.1 (IVT)
  binding signal: 3.16 z-score
[1]
  binding signal: 2.88 z-score
[2]
  binding signal: 1.29 z-score

## AGAAAAGGGAAGCGGTCTGT
PU.1 (IVT)
  binding signal: 4.32 z-score
[1]
  binding signal: 4.43 z-score
[2]
  binding signal: 1.93 z-score

## ATAAAGAGGAAGTGTCAGGG
PU.1 (IVT)
  binding signal: 6.78 z-score
[1]
  binding signal: 7.07 z-score
[2]
  binding signal: 3.35 z-score

## CAAAAAGGGAAGTGGATGCA
PU.1 (IVT)
  binding signal: 6.45 z-score
[1]
  binding signal: 6.6 z-score
[2]
  binding signal: 3.22 z-score

## AGAATGAGGAAGTGCCACAC
PU.1 (IVT)
  binding signal: 7.23 z-score
[1]
  binding signal: 6.91 z-score
[2]
  binding signal: 3.26 z-score

## GGAAAGAGGAACTGAATCAG
PU.1 (IVT)
  binding signal: 6.53 z-score
[1]
  binding signal: 6.82 z-score
[2]
  binding signal: 2.9 z-score

## TAAAAGGGGAAGTTCAGTCC
PU.1 (IVT)
  binding signal: 7.86 z-score
[1]
  binding signal: 7.4 z-score
[2]
  binding signal: 3.06 z-score

## AGAAAAGGGAAGTGGGAAGG
PU.1 (IVT)
  binding signal: 6.49 z-score
[1]
  binding signal: 6.74 z-score
[2]
  binding signal: 3.1 z-score

## CAGGAGAGGAAGTTGGAGAC
PU.1 (IVT)
  binding signal: 4.52 z-score
[1]
  binding signal: 4.61 z-score
[2]
  binding signal: 2.85 z-score

## AAAAAGAGGAACTCCCAGGA
PU.1 (IVT)
  binding signal: 6.86 z-score
[1]
  binding signal: 6.81 z-score
[2]
  binding signal: 3.21 z-score

## GAAATAAGGAAGTGCTCAGA
PU.1 (IVT)
  binding signal: 6.31 z-score
[1]
  binding signal: 6.63 z-score
[2]
  binding signal: 2.42 z-score

## CAAAATGGGAAGTGGTACAT
PU.1 (IVT)
  binding signal: 5.4 z-score
[1]
  binding signal: 5.15 z-score
[2]
  binding signal: 2.3 z-score

## GCAAAGGGGAAGTGGTCAGA
PU.1 (IVT)
  binding signal: 6.17 z-score
[1]
  binding signal: 6.54 z-score
[2]
  binding signal: 3.07 z-score

## AGAAGAAGGAAGTGGGATTT
PU.1 (IVT)
  binding signal: 4.89 z-score
[1]
  binding signal: 4.83 z-score
[2]
  binding signal: 2.39 z-score

## TGAAAGAGGAAGTGCAAGCA
PU.1 (IVT)
  binding signal: 7.24 z-score
[1]
  binding signal: 7.17 z-score
[2]
  binding signal: 3.41 z-score

## GGAAAGAGGAAGTCAAATTG
PU.1 (IVT)
  binding signal: 7.8 z-score
[1]
  binding signal: 7.34 z-score
[2]
  binding signal: 4.11 z-score

## AGAAAGAGGAAATGAGGTTT
PU.1 (IVT)
  binding signal: 5.67 z-score
[1]
  binding signal: 6.09 z-score
[2]
  binding signal: 3.23 z-score

## ACAATGAGGAAGTGCTGGCC
PU.1 (IVT)
  binding signal: 6.19 z-score
[1]
  binding signal: 6.74 z-score
[2]
  binding signal: 2.67 z-score

## TTGAGAGGGAAGTGCACTCT
PU.1 (IVT)
  binding signal: 2.92 z-score
[1]
  binding signal: 2.75 z-score
[2]
  binding signal: 1.09 z-score

## GGATAGGGGAAGTGAGCCGG
PU.1 (IVT)
  binding signal: 4.6 z-score
[1]
  binding signal: 5.46 z-score
[2]
  binding signal: 2.2 z-score

## AAAAAGAGGAAGTGCTACTT
PU.1 (IVT)
  binding signal: 8.88 z-score
[1]
  binding signal: 7.32 z-score
[2]
  binding signal: 4.45 z-score

## AAAAATAGGAAGTGCTGGAG
PU.1 (IVT)
  binding signal: 5.76 z-score
[1]
  binding signal: 5.85 z-score
[2]
  binding signal: 3.13 z-score

## CTGGAGAGGAAGTGGCAGCT
PU.1 (IVT)
  binding signal: 3.81 z-score
[1]
  binding signal: 3.81 z-score
[2]
  binding signal: 2.69 z-score

## CGAAAGGGGAAGAGCTAAAC
PU.1 (IVT)
  binding signal: 3.34 z-score
[1]
  binding signal: 3.37 z-score
[2]
  binding signal: 1.29 z-score

## GCTTTAGGGAACTACTGTGG
PU.1 (IVT)
  binding signal: 3.58 z-score
[1]
  binding signal: 3.29 z-score
[2]
  binding signal: 0.606 z-score

## GAGGAGAGGAAGTGAAAACA
PU.1 (IVT)
  binding signal: 4.19 z-score
[1]
  binding signal: 4.12 z-score
[2]
  binding signal: 2.97 z-score

## GGGAGGAGGAAGTGGAGGGC
PU.1 (IVT)
  binding signal: 4.16 z-score
[1]
  binding signal: 4.32 z-score
[2]
  binding signal: 2.62 z-score

## GATAAGGGGAAGTGAGTCAT
PU.1 (IVT)
  binding signal: 5.78 z-score
[1]
  binding signal: 6.35 z-score
[2]
  binding signal: 2.46 z-score

## AGAATGAGGAAGTGGCATTT
PU.1 (IVT)
  binding signal: 8.08 z-score
[1]
  binding signal: 7.49 z-score
[2]
  binding signal: 4.4 z-score

## AAAAAGAGGAAGTGGGGGAG
PU.1 (IVT)
  binding signal: 8.59 z-score
[1]
  binding signal: 7.6 z-score
[2]
  binding signal: 4.12 z-score

## AAAAAGAGGAAGTCCTATTT
PU.1 (IVT)
  binding signal: 8.54 z-score
[1]
  binding signal: 7.4 z-score
[2]
  binding signal: 4.28 z-score

## AAAAAGGGGAAGTCTGGACT
PU.1 (IVT)
  binding signal: 7.65 z-score
[1]
  binding signal: 7.12 z-score
[2]
  binding signal: 3.26 z-score

## TAATGGAGGAAGTGGAGATA
PU.1 (IVT)
  binding signal: 3.22 z-score
[1]
  binding signal: 3.38 z-score
[2]
  binding signal: 2.16 z-score

## TTTTTAAGGAAGTGCTGTTT
PU.1 (IVT)
  binding signal: 5.83 z-score
[1]
  binding signal: 6.02 z-score
[2]
  binding signal: 2.54 z-score

## ACAAAAAGGAACTGTGCCCA
PU.1 (IVT)
  binding signal: 1.91 z-score
[1]
  binding signal: 1.41 z-score
[2]
  binding signal: 0.511 z-score
